Reference: PubChem BioAssay AID1508623 (National Center for Advancing Translational Sciences (NCATS), 2021)
In all, about 48,000 compounds went through this assay and about 450 (0.94%) were called active. Inconclusive results (about 19%) are left out. Calls follow the shape of the dose curve; as a rule, active = well fitted inhibition curve with a large enough effect; inconclusive = small, poorly fitted or top-dose-only effect; inactive = no such curve, though single readings can be large or run the other way. This is one part of the list.

Test: Primary qHTS for Identification of Small Molecule Inhibitors of Huntingtin Promoter Activity; also: nearly all actives have a fitted effect of over 50% in size
Details: HEK293 HTT promoter firefly luciferase reporter (activity 0% = vehicle and -100% = no light), 24 h; series mostly up to 57.5 µM; activity change, negative = inhibition: at the top concentration
How it was run: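 HEK293 luciferase promoter-reporter cells (2,500/well) plated 24 h, then compounds added at up to 57.5 uM final for 24 h at 37 °C. Firefly luminescence by Dual-Glo, normalized to vehicle (0%) and zero RLU (-100%).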

Activity change, negative = inhibition, inactive:
Cc1ccc(Cn2c(=O)n(-c3ccc(C)cc3)c(=O)c3c2c2cc(C)ccc2n3C)cc1 -1.75%
CCOc1ccc(CCNC(=O)c2cc3c(=O)n(C)c4ccccc4c3n2C)cc1OCC -10.5%
Cc1c(-c2ccc(Cl)cc2)c(=O)oc2c(CN3CCN(CCO)CC3)c(O)ccc12 -21.2%
O=C(CSc1cn(CC(=O)N2CCCCC2)c2ccccc12)NCc1ccc(F)cc1 -14.9%
CCCN(CCC)CCCNC(=O)C1CCN(c2nc3ccc(CC)cc3s2)CC1 45.3%
C[C@@H]1CC(=O)NN=C1c1ccc(NN=C(C#N)C#N)cc1
N#C/C(=C\c1cccc(F)c1)c1nc(-c2cc3c(ccc4ccccc43)oc2=O)cs1 4.79%
CCOc1cc(C2c3c(oc4cc(C)cc(C)c4c3=O)C(=O)N2CCO)ccc1O (stereo not given) -3.07%
COc1ccc(NC(=O)C2CCN(C(=O)c3sc4nc[nH]c(=O)c4c3C)CC2)cc1Cl 5.43%
COc1ccccc1NC(=O)CSc1nc2c(oc3ccccc32)c(=O)n1-c1ccccc1F -11.2%
Cc1cc2oc(C(=O)N(Cc3ccc(N(C)C)cc3)CC3CCCO3)c(C)c2cc1Cl (stereo not given) -5.28%
O=C(O)c1ccc(OCCN2CCCCC2)cc1 -0.134%
COc1ccc(NC(=O)c2oc3ccccc3c2NC(=O)c2cc(C)cc(C)c2)c(OC)c1 -8.95%
CCOC(=O)C1CCN(c2nc3ccccc3nc2Cl)CC1 -3.4%
CCc1cccc(NC(=O)c2cc3c(s2)-c2ccccc2OC3)c1 14.3%
O=C(CN1C(=O)c2cccc3cccc1c23)Nc1cccc(F)c1 -16.1%
CN(Cc1ccccc1)c1ccc(-c2nc(-c3ccccc3)no2)cc1[N+](=O)[O-] -0.939%
C=Cc1ccc(Cn2c(C)c(CNCc3ccc(SC)cc3)c(C(=O)O)c2C)cc1 -10%
COC(=O)c1ccc2c(=O)n3nc(Nc4cc(OC)ccc4OC)sc3nc2c1 -8.82%
Cc1ccccc1NC(=O)CSC1=Nc2ccccc2C2=NC(Cc3ccccc3)C(=O)N12 (stereo not given) -18.5%
Cc1ccc(OCc2nc(C#N)c(NCCc3ccccc3)o2)cc1 -15.2%
CCC(Sc1ncc(S(=O)(=O)c2ccc(Cl)cc2)c(=O)[nH]1)C(=O)Nc1ccc(OC)cc1 (stereo not given) -11%
Cc1ccc(NC(=O)CCCn2c(=O)c3cccn3c3ccccc32)cc1Cl -11.9%
CCCc1nn2c(=O)cc(COC(=O)C3CCCCC3)nc2s1 -16.3%
COc1ccc(-c2nn(-c3ccc(F)cc3)c3c2cnc2ccc(F)cc23)cc1OC -3.83%
COc1ccc(OCC(=O)Nc2ccc(Cl)c(-c3nc4ncccc4o3)c2)cc1 11.1%
COC(=O)c1ccccc1NC(=O)c1oc2ccc3c(c2c1C)C(=O)CC(C)(C)O3 -8.99%
COCCn1c(SCC(=O)c2c(C)[nH]c3ccccc23)nc2cc(C(=O)NC(C)C)ccc2c1=O -6.48%
CCOc1ccc(CCNC(=O)Cn2ccc3cc(S(=O)(=O)N4CCCCC4)ccc32)cc1 -29.8%
CCN(CCCNC(=O)c1cc(Nc2ccc(OC)cc2)nc2ccccc12)c1cccc(C)c1 -6.07%
COc1cccc(CNC(=O)c2ccc3c(c2)N(Cc2ccc(F)cc2Cl)C(=O)c2ccccc2S3)c1 -19.7%
Cc1ccc(Cl)cc1NC(=O)Nc1cn(CC(C)C)c(=O)c2ccccc12 -7.13%
Cc1ccccc1CN1C(=O)c2ccccc2Sc2ccc(C(=O)NCc3ccccc3)cc21 -30.9%
Cc1cccc(C)c1NC(=O)Cn1c(=O)n(Cc2ccccc2Cl)c(=O)c2cccnc21 -1.46%
Cc1ccc(-c2nc(S(=O)(=O)c3ccc(C)cc3)c(SCC(=O)c3ccccc3)o2)cc1 -21.5%
CCN(C(=O)CSc1nc2ccccc2n1Cc1ccccc1C#N)c1ccccc1 -11.5%
COc1ccc(-n2nc(C(=O)Nc3ccc(C)cn3)c3c4ccccc4n(C)c3c2=O)cc1Cl -6.79%
CCOC(=O)c1ccc(NC(=O)CSc2nnc(-c3ccncc3)n2-c2ccccc2)cc1 -9.39%
CCOC(=O)c1ccccc1NC(=O)c1cnn(-c2ccc(OC)cc2)c1C1CCN(C(=O)OC(C)(C)C)CC1 -3.21%
Cc1ccc2c(c1)c(=O)c1ccccc1n2CCCC(=O)Nc1ccc(Cl)cc1C -5.8%
CCOc1ccc(CNC(=O)c2cnc3c(C)cccn3c2=O)cc1 10.6%
N#C/C(=C\c1ccccc1F)c1nc2ccccc2c(=O)[nH]1 -1.42%
CC(=O)c1ccc(NC(=O)CN2C(=O)CCc3cc(S(=O)(=O)N4CCC(C)CC4)ccc32)cc1 -17.6%
COc1cccc(NC(=O)CCc2nnc3n(CC(C)C)c(=O)c4ccccc4n23)c1 -0.484%
O=C(Nc1ccc(Cl)c(C(F)(F)F)c1)c1cc2nc(-c3ccc4c(c3)OCO4)cc(C(F)(F)F)n2n1 -11.8% [at 11.5 µM]
COc1ccc(NC(=O)CSc2n[nH]c(-c3ccccc3)n2)cc1Cl -17.2%
O=C(Nc1ccccc1F)c1oc2ccccc2c1NC(=O)C12CC3CC(CC(C3)C1)C2 -3.71%
CCOC(=O)c1noc2nc(C)n(CC(=O)Nc3ccc(Br)cc3C)c(=O)c12 -9.84%
COc1ccc(OC)c(-n2cnc3cc(C(=O)NCCc4ccccc4)ccc32)c1 6.85%
CC1(CN2CCC(n3c(=O)[nH]c4ccccc43)CC2)OCc2ccccc2-n2cccc21 (stereo not given)
Cc1ccc(CN(C(=O)c2ccc([N+](=O)[O-])cc2)c2ccccn2)cc1 -0.987%
NC(=O)c1noc([C@H](CCCC2CCCCC2)CC(=O)NO)n1 15.1%
CC(C)OC(=O)c1c(NC(=O)c2cc3nc(-c4ccccc4)cc(C(F)(F)F)n3n2)sc2c1CCCC2 -12.7%
Cc1ccc(-c2nnc3ccccc3c2C(=O)Nc2cccc(C(F)(F)F)c2)cc1 26.8%
CC1=C(C(=O)Nc2ccc(C)cc2C)C(c2ccc[nH]2)n2ncnc2N1 (stereo not given) -12.9%
CSc1nnc2c(n1)OC(c1cccc(O)c1Cl)Nc1ccccc1-2 (stereo not given) 4.57%
N#Cc1cc2c(=O)n3ccccc3nc2n(-c2nnc(SCc3ccccc3F)s2)c1=O -7.19%
CCOC(=O)C1CCCN(S(=O)(=O)c2ccc3c(c2)N(C)C(=O)CC(=O)N3C)C1 (stereo not given) -12.2%
O=C(Cn1ncc2c3ccccc3n(Cc3ccc(Cl)cc3)c2c1=O)NC1CCCCCC1 2.11%
CCc1ccc(CNC(=O)c2cnc3sc(N(CC)CC)nn3c2=O)cc1 -9.48%
COCCCNC(=O)Cn1c(=O)n(-c2ccc(Cl)cc2)c(=O)c2c3c(sc21)CCCCC3 -11.6%
COc1ccc(CCNC(=O)CN2C(=O)COc3ccc(S(=O)(=O)N4CCCCCC4)cc32)cc1OC -17%
CCOc1ccc(-n2c(=O)c3sc4ccccc4c3n(Cc3ccc(F)cc3)c2=O)cc1 -3.84%
Cc1ccc(NC(=O)c2ccc(CN3CC(=O)N4CCCCC4C3=O)cc2)cc1C (stereo not given) -20.3%
CCc1ccccc1NC(=O)C(=O)NCCc1sc(-c2cccc(C)c2)nc1C -18.3%
CC(C)c1cnc2c(c1SCC(=O)Nc1cccc([N+](=O)[O-])c1)c(=O)n(C)c(=O)n2C -25.6%
CCn1c(SCC(=O)Nc2ccc(C)c(C)c2)nnc1-c1nonc1NC(C)=O -20.4%
COCCCNc1ncnc2c1nnn2C 9.61%
CCCCC(CC)Cn1c(Oc2ccccc2)nc2c1c(=O)n(C)c(=O)n2C (stereo not given) -15.9%
Cc1[nH]c2c(C)cccc2c1CCNC(=O)c1cc2ccccc2oc1=O -1.5%
COCCn1c(SCC(=O)c2c[nH]c3ccccc23)nc2cc(C(=O)NCC(C)C)ccc2c1=O -25.5%
Cc1ccc(O)c(NC(=O)c2nc3nc(C)cc(C(F)F)n3n2)c1 3.5%
O=c1oc2ccc3ccccc3c2cc1-c1nnc(Nc2cc(C(F)(F)F)ccc2Cl)s1 18.4%
O=S(=O)(c1cccc(Cl)c1)c1nnn2c1nc(NC1CCCC1)c1sccc12 -25.2%
CCc1ccc(CNC(=O)c2cc3c(s2)-c2ccccc2OC3)cc1 -17.9%
Cc1nc(N2CCCC2)ncc1C(=O)NCc1ccccc1Cl 0.0113%
COc1cc(NC(=O)CSc2nc3nc(C)c(Cc4ccccc4)c(C)n3n2)cc(OC)c1OC -34.6%
CC[C@H](C)n1cc(C)c2c(C(=O)NCc3c(C)cc(C)[nH]c3=O)cc(-c3ccc(N4CCNCC4)nc3)cc21 -3.81%
Nc1cccc(S(=O)(=O)N2CCCN(S(=O)(=O)c3ccc4c(c3)OCCO4)CC2)c1 -8.97%
COc1ccc(CC(=O)Nc2sc3c(c2C(=O)Nc2ccc(C)cc2)CCCCC3)cc1 2.63%
CCc1cccc(C)c1Nc1c(-c2cccc(O)c2)nc2sccn12 -9.56%
Cc1cc(NC(=O)CSc2ncc(C(=O)Nc3ccccc3)c(=O)n2C)no1 -11.4%
O=C(NCc1ccccn1)c1nn(-c2ccccc2Cl)nc1CO -1.37%
Cc1ccccc1NC(=O)c1ccc(CNS(=O)(=O)c2ccc3c(c2)C(C)(C)C(=O)N3C)cc1 -15.8%
COc1ccccc1CNC(=O)C(Cc1ccccc1)NS(=O)(=O)c1ccc2c(c1)CCN2C(C)=O (stereo not given) -9.53%
CCN(CC)C(=O)C1=C(C)Nc2nc3ccccc3n2C1c1ccc(Cl)cc1 (stereo not given) -0.041%
CSc1ncc(C(=O)Nc2cccc(Cl)c2C)c(-c2ccccc2)n1 7.69%
CC(=O)OC/C=C(C)/C=C/C=C(C)/C=C/C1=C(C)CCCC1(C)C 4.53%
Cc1ccc(Cl)cc1N(C)C(=O)c1cc2ccc3cccnc3c2[nH]1 3.78%
CCNC(=O)CC1C(=O)N(c2ccc(F)cc2)C(=O)N1Cc1ccc(C)cc1 (stereo not given) -7.1%
CCOc1ccccc1C(=O)NCC(c1ccc(N(C)C)cc1)N1CCCC1 (stereo not given) -5.48%
CSc1ccc(CCNC(=O)c2ccc3c(c2)c(C)c(C)n3Cc2ccc(F)cc2)cc1 -29.4%
CCn1c(CN2CCN(C)CC2)nc2cc(NC(=O)c3cc(OC)c(OC)c(OC)c3)ccc21 12.8%
CCOC(=O)CNC(=O)Cn1nc(N2CCN(c3ccccc3)CC2)ccc1=O 1.53%
CC(=O)c1cccc(NC(=O)c2cc(-c3ccc4c(c3)OCCO4)on2)c1 -1.74%
